In the supplement of paper PMC11417369:
± gives the standard deviation of the averaged measurements. This is one part of the list.

The sequences below were run on PfAP2-G AP2 domain (GST-tagged) (assay: gcPBM binding intensity (ln(normalized median fluorescence intensity)); higher = stronger DNA binding).
Summary of the method: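 For binding intensity, the highest Masliner-normalised natural-log median intensity across replicate spots of either probe orientation was taken. Protein bound to the array was stained with Alexa488 anti-GST antibody and scanned at 488 nm. The protein, GST-tagged P. falciparum DNA-binding domains from E. coli at about 25 μg on average, had been applied for 1 h to an Agilent 4 × 180k array of primer-extended double-stranded 36-bp intergenic genomic probes and negative controls.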

| Sequence | gcPBM binding intensity (ln) |
| --- | --- |
| ATATACGCATTAATAACACACAATATGATAACAAAT [CACACA_site3623] | 10.2 ± 0.092 |
| AAAATGTATGGAATGCTCTTTTTTAAGTATTATATA [GTGCAC_negctrl_site175] | 9.78 ± 0.042 |
| ACAAAATTGATATATGCACACATATATATATTAAAT [CACACA_site8152] | 9.9 ± 0.13 |
| GTAGGTTTATATTGTAGTACATACAAACGTTAACAA [XGTACX_site5476] | 11.4 ± 0.95 |
| TATATTTATTAGTTTCGTACGTACAAAGTTATTTTT [XGTACX_site8847] | 11.4 ± 0.82 |
| AATATTGCACCATTTTGTACATAATATATTCAAATA [XGTACX_site475] | 11.1 ± 0.64 |
| TTTATTTATTATTAAAGTACTAAAATATATTATTAT [XGTACX_site4887] | 10.8 ± 0.59 |
| ATACGTATTTTCTTTTGTACATATATATAAAATATT [XGTACX_site2675] | 11 ± 0.49 |
| TTTTTTTTTTGATGTTGTACATATATATTATATAAT [XGTACX_site2765] | 11.3 ± 0.52 |
| GCTATTTATTTATATTGTACTTTTTTTTTTTTTTTT [XGTACX_site3624] | 11.7 ± 1.1 |
| TATTTTGTTCTTTCCACACACAAATACCTATCTTGT [CACACA_site7833] | 10.27 ± 0.092 |
| ATGTAACATAGGAAATGTACATATAAATATAATTTA [XGTACX_site6452] | 11.1 ± 0.59 |
| TTTTATTGATTATTCATAAATATGCTATTCATCTAA [CACACA_negctrl_site1084] | 9.5 ± 0.23 |
| ATTCGTGAACTAGCCAAACACACGAAAAAAAAAAAA [CACACA_site3342] | 10.1 ± 0.38 |
| CATACATATATATATACACACATACATATATATACA [CACACA_site8165] | 10.2 ± 0.27 |
| TTTTTTTTTGGGGGTGCATGCAAGACATATATTTAA [TGCATGCA_site228] | 11 ± 0.76 |
| TGGAGGTCATTACACAGTACCCAGGAAATCTACGGA [XGTACX_site2004] | 11 ± 0.69 |
| AATCCTTAAAATTAACGTACGAAATGAATTTATTAA [XGTACX_site956] | 10.7 ± 0.36 |
| ATAATAACAAAATATTAACACACATAACATATTATA [CACACA_site8906] | 9.855 ± 0.049 |
| ACAAAACAAAACAAAAGTACACAAAATAAATAAGAT [XGTACX_site6497] | 11.5 ± 0.92 |
| AAACCGTGGGAGCACACACACACACCCACCCATATA [CACACA_site332] | 10.4 ± 0.4 |
| TTCTGTCAATATGCTTGTACGAAATATTTCGTAATT [XGTACX_site3182] | 11 ± 0.58 |

| Sequence | gcPBM binding intensity (ln) |
| --- | --- |
| ATATATATAAAATATGGTACAGAAAAAGTCTTGTTT [XGTACX_site8868] | 10.9 ± 0.45 |
| ATAAATAAATACTAGGCACACACACCGATATATATA [CACACA_site8649] | 10.1 ± 0.17 |
| AAAATAAACCCAGACACACTCATTAAAAAATATCAT [CACACA_site5903] | 9.95 ± 0.099 |
| TATTAATCCTTTTGCTTGGAAACATTCAAAAGGAAG [CACACA_negctrl_site1129] | 9.82 ± 0.099 |
| TATATTATATTTTTATGTACTTATTTATTTTGTTTC [XGTACX_site6145] | 11.3 ± 0.67 |
| AACATATATTTTTAATGTACAAGGTTGTAAAGAACT [XGTACX_site1405] | 10.8 ± 0.31 |
| ATATTAAAATTTTAATGTACATGCGTATGTAGGAAT [XGTACX_site1673] | 11 ± 0.53 |
| AAAGAATAATTAAATACACACATATTGCAGTAAAAA [CACACA_site7201] | 10.04 ± 0.057 |
| TGTAAAATATAAAAAGTGCATTTCTTTTAATATGAT | 9.875 ± 0.007 |
| ATGTATATATTCAATTGTACATGTTATATTTACACA [XGTACX_site1125] | 11.1 ± 0.64 |
| ATTGTATTAAAATGCACACATATCAAGAGGAATTTT [CACACA_site283] | 10.1 ± 0.14 |
| TATATTAAAATTTACTGTACTTTTTTTATTTTAAAA [XGTACX_site4077] | 11.6 ± 1.1 |
| TTAAATAATGCCACCAGTACCCACTGAAAGAAAAAA [XGTACX_site5013] | 10.9 ± 0.59 |
| CAATTGATATTGAAATGTACTTTTTAGATGAACCTT [XGTACX_site2354] | 11.3 ± 0.67 |
| AAAGATATAAATTACTGTACTAATGAAATTGGTAAA [XGTACX_site3582] | 11.1 ± 0.73 |
| ACCTTAAATAATACATGTACAAAAAAATTTATAATA [XGTACX_site1043] | 11 ± 0.49 |
| TAGGGATTATACCACACACACATACACATAAATATA [CACACA_site3178] | 10.2 ± 0.27 |
| AAGAATAAGGAAAAATGTACAGAATGCACATATGAA [XGTACX_site4705] | 10.8 ± 0.5 |
| AATTTTATTACTTTTACACACCTATATATCATTCAT [CACACA_site7525] | 10 ± 0.028 |
| AAAAAAAATACAAAAAGTACAAAAAATACAAAAAAA [XGTACX_site8844] | 11.1 ± 0.66 |
| ATGTATATATATATATGTACATATTTTTTATATGTA [XGTACX_site441] | 11.2 ± 0.81 |
| TTCTTTTTTTAAAGAAGTACTATATTTTAAATTATA [XGTACX_site5059] | 11.2 ± 0.93 |
